The supplement of paper PMC10126150
Sequences with one replicate were seen in a single cluster, so their values are uncertain.

Test system: ATP
Test: switch fluorescence ratio, 500 uM ATP over buffer (Cy3 cluster intensity, sum of 5 cycles each) (fold (ratio)); higher = stronger signal-on switching upon ATP binding; sequences stand for … in TCGTCGGCAGCGTCAGATGTGTATAAGAGACAGTTTTTTTTTTTTTTTTTTTTTTTTT…TC
Conditions: aptamer strand: ATP DNA aptamer (quencher-CACCTGGGGGAGTATTGCGGAGGAAGG + anchor), 100 nM annealed; ATP concentration: 500 uM; one replicate
Procedure, shortened: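 The quencher-labelled ATP aptamer, at 100 nM, was annealed to Cy3-labelled switching-strand clusters on a modified Illumina MiSeq flow-cell. The clusters were imaged in selection buffer, then after 15 min with 500 uM ATP at 22 °C, and this buffer/ATP cycle ran five times with NaOH stripping and re-annealing between runs. Per-cluster fluorescence ratios, summed target-cycle over summed buffer-cycle Cy3 intensity, were averaged per switch-domain sequence. Clusters outside 100-1000 RFU were excluded.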
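Also: ATP exposure 15 min at 22 °C before imaging.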

Sequence | switch fluorescence ratio
TCCTCTCCCC | 1.93
CTCAGTTATT | 1.02
CATCGTTTGG | 1.02
CAAGTCCTAC | 1.03
TTACTTGTC | 1.25
TTGCGTGGGA | 0.99
TTAGCCGGCA | 0.991
TTCCTTGTGT | 1
TTTTATACGA | 1.06
AAAAAGCCGT | 1.03
CCGAGGGCGG | 1.24
CCCGGCAGAA | 1.54
GGCTGGTTAC | 1.04
GTTGCAGAGC | 1.12
TTTATAGGAC | 0.963
GCGTTGTTTC | 1.03
ACGCTCTCAA | 1.18
AAGCTCGTGT | 1.01
GTTAGGCT | 1.02
ACGTAGTGAG | 1.02
CACGGTATAT | 1.24
AGTAACATCT | 1.04
GATGGACGGG | 1.03
ATCCTTCGTG | 1.29
TAATATGTTT | 0.992

Sequence | switch fluorescence ratio
CCAACCATTT | 0.978
GATTATTGAG | 0.963
AAAGCCGGGT | 1.1
GGTTTCACCA | 1
CATCTCTTTT | 0.991
TAGGAAGCTA | 1
CAGGGGATAG | 1.03
AAGATGTGGG | 1.04
CGCTCAGGGG | 2.09
GGTTGGAGCT | 0.987
ACGGGACGCT | 1.06
AGAAGTGAAA | 0.979
CATACACTGC | 1.07
CGCAGTCGAG | 1.75
ATCGAGTTAA | 0.99
ACTGTTTTC | 1
TTTGCATAAA | 1.02
GAGAACCTTA | 1.21
TTATTGTGCA | 0.995
CAAATGGCCG | 1.15
TAGTGAACGA | 1
GCGTGTTGAG | 1.02
TGCCCCCAAT | 1.08
AAAGGTTGAG | 1
TCGTATATGC | 1.33

Sequence | switch fluorescence ratio
CCAAGTTAAA | 1.01
GGCGTTCTCG | 1.03
TAAAAAAAGT | 1.01
TATCGAGTTA | 1.05
CCCAAAATCG | 0.992
ACGACCGCT | 1.42
CTTACGTTGG | 1
TAGAGATTTC | 1.02
CGGTAAACCG | 0.987
AAAAGGAGCG | 1
TCTAGGTCTG | 0.975
AGATTATCGG | 0.999
ACGCATATAG | 4.28
AGGTTACCC | 1.03
GATCCCCGTT | 0.998
AACCTGTGCA | 1.14
TCGTTTAAGT | 0.989
CGCCCGTAGC | 1.31
TTTAAATACA | 1.05
ATCGGTTAGA | 0.964
CCATCAGGAT | 1.02
TTCATGACAG | 0.962
CCAATCAACA | 1.04
TTTTCGAGCC | 1.03
ATTTGCTTAC | 1.27

Sequence | switch fluorescence ratio
GTCCAAAATT | 1.06
CCTCGATAAA | 1.24
TCTTTTCAAG | 1.05
TTCTGATTAG | 0.991
GTTTTAACTA | 1.02
CCGGCGTTAT | 1.79
GGCTTCCATT | 1.02
AGCAAGCGCT | 0.997
ACGAGTCAGC | 1.08
ACGGTAAGC | 1.21
GTGAACCGGG | 1.06
ACGATTTGA | 0.985
GCGGCCTGTG | 1.05
GCAGAATGAT | 1
TTATGTCGCG | 1.01
CTAACAATTG | 0.99
AAAAGGTCAT | 0.999
GCCATACCTC | 3.06
TCAAAAATGG | 1
AAGCGTTGAT | 1
TGGGCACGCG | 0.977
CTAAGGCCGG | 0.974
TTCCTGGGAC | 1.07
GGCTACAGAT | 0.994
TAACATGG | 0.973

Sequence | switch fluorescence ratio
AGTCTGTACC | 1.04
CTTAATTGGT | 1.06
TGTCGTACTG | 1.02
TGCGATATAG | 1.08
GCACCCAGCT | 1.03
TGTCGCAATA | 1.11
ACGGGCCTCG | 0.974
TAATCCTCTG | 1.12
TTCACCCAGT | 1.22
TGCTGAGTGA | 0.967
CCAGTGCTAG | 1.01
GAGTATCTAC | 1.03
TTTCCCTCAC | 1.05
ACTGATTTCT | 1.05
GGCGATCTCC | 1.6
GATGGTGTAC | 1.08
GATAAAAGTC | 1.04
CGACCTGGGG | 0.905
AAGGCGGATG | 0.987
TATTTAACGG | 0.976
TCTGGTGGGT | 1
GAACCCGAGT | 1.01
GGCTACGAGT | 1.03
CTATTACCAG | 1.02
GAGTATCAAA | 1.03

Sequence | switch fluorescence ratio
CCGGTGAACA | 0.969
CTCTGCGTCT | 1.08
CGGGAGGCAG | 1.08
GGGCACCAAA | 0.999
TCGGTGTCCC | 0.987
GCAGATATGC | 1.06
AAGGCACTAG | 0.995
CAATGTAAGC | 1
CATTACTAGA | 1.03
GCCTCCCTGT | 1.21
TCCGATCAGA | 1.08
TACTGTCCAG | 1.02
TGTGTATCTA | 0.977
GCGGAAGAAG | 0.995
ACGAGCAGGT | 1.19
ATGCTAGAGG | 0.994
GTTGTAGATT | 0.962
AGATGGGCAA | 0.967
TGTAACCAAA | 1.01
GCAGGGGATC | 1.02
ACCGGGGGTC | 1
TACCCTCTGT | 0.981
GCTTACGTTC | 1.02
CGTTCACCGT | 1.01
TAATCACTTG | 0.972

Sequence | switch fluorescence ratio
TCTCCGGTGG | 1.01
CATTTTGGGT | 0.989
TGCATCGACG | 0.994
TCTCACCGTT | 0.996
GAAGTAATTA | 0.992
TACAGGCCCG | 1.07
CAATATTCGA | 0.976
ATCCAGGGTG | 2.86
TCCAGGGGCC | 1.14
GGAATGTCGA | 0.942
CATGAGGGAC | 1.19
ATCCGCGTCT | 1.13
TTTACGAATT | 1.04
AGATTAACCG | 1.07
CTGGGGCATG | 1
AGGCCTCTTA | 1.01
GAGGTAAATA | 1.09
TGGGCTGGAG | 1
TCATCCAGGA | 1.03
ATGACTTAGG | 1
ACAGGAGGAT | 0.984
GAAGGGTGAT | 1.04
CCTATATGGT | 1.02
TCTTGCGTTA | 1.06
CGACATGAGA | 1.02

Sequence | switch fluorescence ratio
TCTGACCGTT | 1.01
GGGTCGCGGC | 1.03
TAAATTATCC | 0.972
CGGTCCAACT | 1.02
GGCCATTCTA | 0.994
CTTAAGATAT | 1.02
TGCTTGCGAA | 1.03
GCCGGTTAGT | 1.03
CCCTTGGGAT | 1.01
TAAGCGAAGG | 1.04
TAGGTGTTAC | 1.04
GAAAATATCG | 1
CCCGTTTTTC | 1.02
GGAATCGTCG | 0.96
CAAACCCGGC | 1.06
TACTTAAAAG | 1.08
CAGATTCCTT | 0.997
AGACCTTAAG | 0.958
ACAGATGCAA | 0.981
CCGACAGGAG | 1.08
GGTCACTACA | 0.999
GGAGTTGAGC | 1.01
TTGTCATATG | 1.04
TCCAGCACCA | 1.14
GACAAAAGAG | 1.08
